The record followed here is the supplement of paper PMC8728848.

Some of the results follow.

Common to all, as to test: glycan array binding signal (z-score within array); higher = stronger binding
What all share (conditions): glycan notation: IUPAC condensed, linker removed; mutation: I144G

In assay [1] the target is Gal(b1-4)GlcNAc(b1-2)Man(a1-6)[GlcNAc(b1-2)Man(a1-3)]Man(b1-4)GlcNAc(b1-4)GlcNAc. The method in brief: (§1)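 Glycan array data were curated from 3228 arrays in the Consortium for Functional Glycomics database and kept only where the protein sequence was available. Glycan names were converted to IUPAC-condensed notation, and columns mapping to the same glycan were averaged. The binding signal is a within-array Z-score, averaged across arrays of the same protein sequence at different concentrations or buffers and across linkers. Negative Z-scores can be read as non-binding.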

Assay [2] addresses Gal(b1-4)GlcNAc(b1-2)Man(a1-6)[Man(a1-3)]Man(b1-4)GlcNAc(b1-4)GlcNAc. In outline: as §1
Assay [3] addresses Gal(b1-4)GlcNAc(b1-2)[Gal(b1-4)GlcNAc(b1-4)]Man(a1-3)[Gal(b1-4)GlcNAc(b1-2)Man(a1-6)]Man(b1-4)GlcNAc(b1-4)GlcNAc. In outline:
as §1

Assay [4] has as its target Gal(b1-4)GlcNAc(b1-2)[Gal(b1-4)GlcNAc(b1-4)]Man(a1-3)[Gal(b1-4)GlcNAc(b1-2)[Gal(b1-4)GlcNAc(b1-6)]Man(a1-6)]Man(b1-4)GlcNAc(b1-4)GlcNAc. In outline:
as §1

Assay [5] addresses Gal(b1-4)GlcNAc(b1-2)[Gal(b1-4)GlcNAc(b1-4)]Man(a1-3)[GlcNAc(b1-4)][Gal(b1-4)GlcNAc(b1-2)Man(a1-6)]Man(b1-4)GlcNAc(b1-4)GlcNAc. The method in brief: as §1
Assay [6] deals with Gal(b1-4)GlcNAc(b1-2)[Gal(b1-4)GlcNAc(b1-4)]Man(a1-3)[GlcNAc(b1-4)][Gal(b1-4)GlcNAc(b1-2)[Gal(b1-4)GlcNAc(b1-6)]Man(a1-6)]Man(b1-4)GlcNAc(b1-4)GlcNAc. In outline: as §1
Assay [7] addresses Gal(b1-4)GlcNAc(b1-2)[Gal(b1-4)GlcNAc(b1-6)]Man(a1-6)[Gal(b1-4)GlcNAc(b1-2)Man(a1-3)]Man(b1-4)GlcNAc(b1-4)GlcNAc. In outline:
as §1

The target of assay [8] is Gal(b1-4)GlcNAc(b1-2)[Gal(b1-4)GlcNAc(b1-6)]Man(a1-6)[Gal(b1-4)GlcNAc(b1-2)Man(a1-3)]Man(b1-4)GlcNAc(b1-4)[Fuc(a1-6)]GlcNAc. The method in brief: as §1
The target in assay [9] is Gal(b1-4)GlcNAc(b1-2)[Gal(b1-4)GlcNAc(b1-6)]Man(a1-6)[GlcNAc(b1-4)][Gal(b1-4)GlcNAc(b1-2)Man(a1-3)]Man(b1-4)GlcNAc(b1-4)GlcNAc. The method in brief:
as §1

Assay [10] concerns the target Gal(b1-4)GlcNAc(b1-2)[Gal(b1-4)GlcNAc(b1-6)]Man(a1-6)[GlcNAc(b1-4)][Gal(b1-4)GlcNAc(b1-2)[Gal(b1-4)GlcNAc(b1-4)]Man(a1-3)]Man(b1-4)GlcNAc(b1-4)[Fuc(a1-6)]GlcNAc. In outline:
as §1

The target in assay [11] is Gal(b1-4)GlcNAc(b1-3)Gal(b1-3)GalNAc. The method in brief:
as §1

In assay [12] the target is Gal(b1-4)GlcNAc(b1-3)Gal(b1-3)GlcNAc. The method in brief:
as §1

For assay [13], the target named is Gal(b1-4)GlcNAc(b1-3)Gal(b1-4)Glc. In outline: as §1
In assay [14] the target is Gal(b1-4)GlcNAc(b1-3)Gal(b1-4)GlcNAc. The method in brief:
as §1

Assay [15] has as its target Gal(b1-4)GlcNAc(b1-3)Gal(b1-4)GlcNAc(b1-2)Man(a1-3)[Gal(b1-4)GlcNAc(b1-3)Gal(b1-4)GlcNAc(b1-2)Man(a1-6)]Man(b1-4)GlcNAc(b1-4)GlcNAc. In outline: as §1
Assay [16] has as its target Gal(b1-4)GlcNAc(b1-3)Gal(b1-4)GlcNAc(b1-2)Man(a1-3)[Gal(b1-4)GlcNAc(b1-3)Gal(b1-4)GlcNAc(b1-2)Man(a1-6)]Man(b1-4)GlcNAc(b1-4)[Fuc(a1-6)]GlcNAc. In outline: as §1
For assay [17], the target named is Gal(b1-4)GlcNAc(b1-3)Gal(b1-4)GlcNAc(b1-2)[Gal(b1-4)GlcNAc(b1-3)Gal(b1-4)GlcNAc(b1-6)]Man(a1-6)[Gal(b1-4)GlcNAc(b1-3)Gal(b1-4)GlcNAc(b1-2)Man(a1-3)]Man(b1-4)GlcNAc(b1-4)GlcNAc. In outline: as §1
The target of assay [18] is Gal(b1-4)GlcNAc(b1-3)Gal(b1-4)GlcNAc(b1-2)[Gal(b1-4)GlcNAc(b1-3)Gal(b1-4)GlcNAc(b1-6)]Man(a1-6)[Gal(b1-4)GlcNAc(b1-3)Gal(b1-4)GlcNAc(b1-2)Man(a1-3)]Man(b1-4)GlcNAc(b1-4)[Fuc(a1-6)]GlcNAc. The method in brief: as §1
In assay [19] the target is Gal(b1-4)GlcNAc(b1-3)Gal(b1-4)GlcNAc(b1-3)Gal(b1-4)GlcNAc. The method in brief:
as §1

Assay [20] concerns the target Gal(b1-4)GlcNAc(b1-3)Gal(b1-4)GlcNAc(b1-3)Gal(b1-4)GlcNAc(b1-2)Man(a1-3)[Gal(b1-4)GlcNAc(b1-3)Gal(b1-4)GlcNAc(b1-3)Gal(b1-4)GlcNAc(b1-2)Man(a1-6)]Man(b1-4)GlcNAc(b1-4)GlcNAc. In outline: as §1
The target of assay [21] is Gal(b1-4)GlcNAc(b1-3)Gal(b1-4)GlcNAc(b1-3)Gal(b1-4)GlcNAc(b1-2)Man(a1-3)[Gal(b1-4)GlcNAc(b1-3)Gal(b1-4)GlcNAc(b1-3)Gal(b1-4)GlcNAc(b1-2)Man(a1-6)]Man(b1-4)GlcNAc(b1-4)[Fuc(a1-6)]GlcNAc. In outline: as §1
Assay [22] concerns the target Gal(b1-4)GlcNAc(b1-3)Gal(b1-4)GlcNAc(b1-3)Gal(b1-4)GlcNAc(b1-2)[Gal(b1-4)GlcNAc(b1-3)Gal(b1-4)GlcNAc(b1-3)Gal(b1-4)GlcNAc(b1-6)]Man(a1-6)[Gal(b1-4)GlcNAc(b1-3)Gal(b1-4)GlcNAc(b1-3)Gal(b1-4)GlcNAc(b1-2)Man(a1-3)]Man(b1-4)GlcNAc(b1-4)[Fuc(a1-6)]GlcNAc. The method in brief: as §1

B1: rAAL-I144G (Agrocybe aegerita), Q6WY08 (protein)
chain: MQGVNIYNISAGTSVDLAAPVTTGDIVTFFSSALNLNAGAGNPNNTTLNLFAENGAYLLHIAFRLQENVIIFNSRQPDGPWLVEQRVSDVANQFAGIDGKAMVTVFDHGDKYQVVINEKTVIQYTKQISGLTLSLSYNATEETSGFSTVVEAVTYTGLALEHHHHHH
Take B1: the “glycan array binding signal (z-score)” value was -0.137 in [1]; -0.063 in [2]; -0.09 in assay [3]; -0.082 in [4]; -0.087 in assay [5]; -0.168 in [6]. The “glycan array binding signal (z-score)” value in assay [7] was -0.135; in assay [8] it was -0.055; in assay [9], -0.193; in assay [10], -0.066; in assay [11], -0.191; in assay [12] it was -0.158. In addition, the “glycan array binding signal (z-score)” value was -0.137 in assay [13]; -0.165 in assay [14]; -0.037 in assay [15]; -0.086 in assay [16]; -0.018 in assay [17]; -0.052 in [18]. Besides, the “glycan array binding signal (z-score)” value in assay [19] was -0.095; in [20] it was -0.097; in assay [21], -0.083; in assay [22], -0.051.
